These are literature values, as cited in PMC11006913.

Numbering of substitutions follows the chain as printed. This is one part of the list.

Common to all, as to details: PBM; conditions not shown; double strand, one strand shown; scale: upbm affinity estimate (log intensity, higher = more binding, comparable within an allelic series)
Data set [1] has as its target ARX (Homo sapiens) (UniProt Q96QS3).
The target of data set [2] is ARX L343Q (Homo sapiens) (UniProt Q96QS3).
Data set [3] addresses ARX P353L (Homo sapiens) (UniProt Q96QS3).
Data set [4] deals with ARX P353R (Homo sapiens) (UniProt Q96QS3).
The target in data set [5] is ARX R332H (Homo sapiens) (UniProt Q96QS3).
Data set [6] concerns the target ARX T333N (Homo sapiens) (UniProt Q96QS3).
For data set [7], the target named is T1, HESX1 E149K (Homo sapiens) (UniProt Q9UBX0).
T1 sequence: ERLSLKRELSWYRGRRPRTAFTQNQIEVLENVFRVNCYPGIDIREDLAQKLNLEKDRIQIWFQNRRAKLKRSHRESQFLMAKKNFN

Data set [8] deals with T2, HESX1 N125S (Homo sapiens) (UniProt Q9UBX0).
T2 sequence: T1 sequence with N31S, K55E

For data set [9], the target named is T3, HESX1 R160C (Homo sapiens) (UniProt Q9UBX0).
T3 sequence: T1 sequence with K55E, R66C

Data set [10] concerns the target HOXD13 I297V (Homo sapiens) (UniProt P35453).
Data set [11] addresses HOXD13 I322L (Homo sapiens) (UniProt P35453).
Data set [12] addresses HOXD13 N298S (Homo sapiens) (UniProt P35453).
The target in data set [13] is HOXD13 Q325K (Homo sapiens) (UniProt P35453).
Data set [14] addresses HOXD13 Q325R (Homo sapiens) (UniProt P35453).
For data set [15], the target named is HOXD13 R306W (Homo sapiens) (UniProt P35453).
In data set [16] the target is HOXD13 S316C (Homo sapiens) (UniProt P35453).
For data set [17], the target named is ISX (Homo sapiens) (UniProt Q2M1V0).
Data set [18] concerns the target ISX R83Q (Homo sapiens) (UniProt Q2M1V0).
The target of data set [19] is PROP1 R112Q (Homo sapiens) (UniProt O75360).
Data set [20] has as its target PROP1 R99Q (Homo sapiens) (UniProt O75360).

For CAATTAAA [8-mer CAATTAAA], the binding signal in [1] is 12.9; in data set [2] it was 10.8; in data set [3], 12.3; in data set [4], 10.6; in data set [5], 10.9; in data set [6] it was 12.1. Besides, the binding signal in [7] is 11.5; in [8], 12.1; in [9] it was 10.2; in [10], 12.3; in [11], 11.5; in data set [12], 12.7. The binding signal was 10.6 in [13]; 11.2 in data set [14]; 11.7 in [15]; 12.2 in data set [16]; 15.2 in data set [17]; 14.7 in [18]. Further, the binding signal in [19] was 12.7; in data set [20], 12.1.
As for GTAATTAC [8-mer GTAATTAC], the binding signal in data set [1] was 13.1; in data set [2], 11.2; in [3], 12.7; in data set [4] it was 11; in [5], 11.3; in [6], 12.2. Also, the binding signal in data set [7] was 11.8; in data set [8], 12.7; in data set [9], 10.6; in data set [17] it was 15.2; in [18] it was 13.9; in data set [19], 12.9. Further, the binding signal in data set [20] is 12.5.
For the sequence GGGCGCGA [8-mer GGGCGCGA], the binding signal in data set [1] is 10; in data set [2], 9.97; in data set [3], 10; in data set [4], 9.93; in [5], 10; in data set [6], 10.1.
Consider CAATTAAC [8-mer CAATTAAC], for which the binding signal is 12.9 in [1]; 11 in [2]; 12.6 in data set [3]; 10.9 in data set [4]; 11.1 in data set [5]; 12.1 in data set [6]. In addition, the binding signal in data set [7] is 11.9; in data set [8], 12.5; in data set [9] it was 10.4; in data set [17], 15.3; in [18], 14.7; in data set [19], 12.9. In addition, the binding signal in [20] is 12.4.
Turning to CCAATTAA [8-mer CCAATTAA], the binding signal was 13.2 in data set [1]; 11 in data set [2]; 12.8 in data set [3]; 10.8 in data set [4]; 11.3 in data set [5]; 12.4 in data set [6]. The binding signal is 12 in [7]; 13.3 in data set [8]; 10.4 in data set [9]; 12.5 in data set [10]; 11.4 in data set [11]; 12.7 in data set [12]. For the same sequence, the binding signal was 10.9 in data set [13]; 11.5 in [14]; 11.6 in [15]; 12.4 in [16]; 15.5 in [17]; 15.2 in [18]. Further, the figures for the binding signal in data set [19] and in data set [20] were 13 and 12.6, respectively.
On to CAAATTAA [8-mer CAAATTAA], for which the binding signal in [1] is 12.7; in data set [2] it was 10.7; in [3], 12.1; in data set [4], 10.6; in data set [5], 10.8; in data set [6], 11.9. Further, the binding signal in data set [7] is 11.1; in [8] it was 11.1; in data set [9], 10.2; in data set [17] it was 14.7; in [18], 13.3; in [19] it was 12.5. In addition, the binding signal in [20] was 11.9.
For CAATTAGC [8-mer CAATTAGC], the binding signal in data set [1] is 13.2; in data set [2], 10.9; in data set [3], 12.9; in [4], 10.7; in data set [5] it was 11; in data set [6] it was 12.2. In addition, the binding signal in [7] is 11.9; in data set [8], 12.7; in [9], 10.3; in data set [17], 15.5; in data set [18], 14.7; in data set [19], 12.9. Further, in data set [20], the binding signal is 12.5.
ATAATTAC [8-mer ATAATTAC]: the binding signal in data set [1] is 12.9; in data set [2], 11; in [3], 12.4; in data set [4], 10.9; in [5] it was 11.1; in [6], 12. The binding signal is 11.7 in [7]; 12.3 in data set [8]; 10.4 in [9]; 15.1 in [17]; 13.7 in [18]; 12.7 in [19]. The binding signal in data set [20] is 12.2.
Regarding CCAATTAC [8-mer CCAATTAC], the binding signal is 12.9 in [1]; 10.9 in [2]; 12.8 in [3]; 10.7 in data set [4]; 11.1 in [5]; 12.2 in [6]. In addition, the binding signal in data set [7] was 11.9; in [8], 12.4; in data set [9], 10.4; in [17], 15.3; in data set [18], 14.1; in [19], 13. In addition, the binding signal in data set [20] was 12.6.
For ATCAATTA [8-mer ATCAATTA], the binding signal in [1] is 13.2; in data set [2], 11.1; in [3] it was 12.8; in [4] it was 10.9; in data set [5] it was 11.3; in data set [6] it was 12.3. For the same sequence, the binding signal is 12 in data set [7]; 13.2 in [8]; 10.4 in [9]; 15.4 in data set [17]; 14.7 in [18]; 12.9 in data set [19]. The binding signal in data set [20] was 12.5.
